First the molecules themselves.
B1: LINE1-mini (parent)
chain: GGCAGAGCUCAACACAGCGUGGCAAAGUGGCUGUGGCUAGACUGCC

Read counts are not given, so values of variants with three or more changes are uncertain.

Here are results for 167 variants from the RNAGym collection of RNA variant scans (doi:10.7554/elife.90254).

The variants in this data set derive from B1. Kind of data set: self-cleavage, relative activity (ratio to wild type); higher = more cleavage; in vitro, sequencing; the parent is a self-cleaving ribozyme.
C15A G17C A25U C37U: the self-cleavage is 0.15.
In the case of C15G U28G U34A it was 0.01; in that of C15G G22C A39U, 0.01; in that of C15A G21U A24C G40C, 0.02.
With C15G A26G A39C A41C, the self-cleavage came out at 0.
On to C15G A26C G44A, for which the self-cleavage was 0.02.
In the case of C15A G21C C31A G36C C45A it was 0.15; in that of C15A C18U U38A, 0.12.
The result for C15A G21C A25G G35C G40C reads 0.02; that for C15A G22U A25U, 0.03; that for C15G U32C C45G, 0.
In the case of C15G A26U G33A G36C U43A it was 0.02.
Take C15G G19A U38A: the self-cleavage is 0.12.
The result for C15A G21A A26U G27U reads 0.09; that for C15A G22C A41C, 0.03.
The result for C15A C23G G27C A41U reads 0.05; that for C15A G30U G44A, 0.07; that for C15A G19C U20G G30C G33U, 0.03.
The result for C15A C23G G33A reads 0.07; that for C15A A25C U28A G29C G30U C37G C46G, 0.01; that for C15A U20G A24U, 0.04.
Take C15A U20C G21A: the self-cleavage was determined as 0.07.
As to C15G A24U G44U, the self-cleavage stood at 0.02.
C15A A16C G22A: the self-cleavage was determined as 0.05.
The result for C15A G17U C23U G27U G36A C46G reads 0.01.
In the case of C15A G17A C18A A25C U32G G35A G36A it was 0.02; in that of C15G A16U C18U G21A G27U U34C C37U, 0.07; in that of C15A G19U G22U U32G A39C, 0.02.
The result for C15G A16G C23U reads 0.03.
Consider C15A U34A C42A, for which the self-cleavage was 0.03.
Take C15G C23G A26G C45U: the self-cleavage was found to be 0.01.
The result for C15A C23A C31U G33U G36C reads 0.02; that for C15A G22U A41C, 0.05; that for C15A A24C C37G, 0.
For the variant C15A G29C U43C C46G, the self-cleavage is 0.04.
The result for C15G G22C G36A reads 0.03; that for C15A G33C A41U C46G, 0.04; that for C15A G29C C45G, 0.04.
The result for A14U G35U G36U reads 0.13; that for C15G G29U G36C, 0.02; that for C15G G21A G29U G36C U43C, 0.02.
Take A14U U20G C23U C37U U38A C45A: the self-cleavage amounted to 0.2.
For C15G A25C G36C, the self-cleavage was 0.02.
The result for C15G G30C U38C G40A G44A reads 0; that for A14U U20C G21C U28A C42U, 0.01.
In the case of C15A G22A A25G U32A it was 0.04.
Regarding C15A G19U U34G, the self-cleavage stood at 0.01.
The result for C15A A25U C46U reads 0.06; that for C15G A24U U38A, 0.02.
As to C15G A16C A24G U34A C37A U38A, the self-cleavage came out at 0.01.
C15A C23A G30U C37U C46A: the self-cleavage worked out at 0.56.
The result for C15G G40U C46A reads 0; that for C15A A24U G29U, 0.02; that for C15A C31A G36C, 0.06.
In the case of C15A C31A G36A it was 0.06; in that of C15A C18G G40U A41C, 0.1.
The result for C15G G33C G44A reads 0.03; that for C15G G17A G29A C42G, 0.04.
Regarding C15A G17U G27U, the self-cleavage turned out to be 0.22.
The result for C15A U20C C23G G35U reads 0; that for C15G G17A A25G G27U G29U G33U U43G, 0.03; that for C15G A39G U43A, 0.
The result for C15G A16C U28A U34C C37U reads 0.
In the case of C15G U20C C23A U34G it was 0.02.
With A14U U38G A39U, the self-cleavage was 0.08.
For C15A G30U C31A G33U C37G G44U, the self-cleavage was 0.04.
Turning to C15A A24U U28G G29U C46G, the self-cleavage turned out to be 0.07.
The result for C15A A24C U43C reads 0; that for C15G G17U U20C, 0.01.
The result for C15A C31G C45A C46A reads 0.02.
The result for C15A G19A C46U reads 0.04; that for C15G C23U U38A, 0.38.
For C15A G30A U43C, the self-cleavage was found to be 0.11.
For C15A A25C U28A, the self-cleavage was 0.04.
In the case of C15A G17C G27U U34A A41C it was 0.03; in that of C15G C23U U32C U34C, 0.03.
Regarding C15G U20A U28A C37U A39C, the self-cleavage worked out at 0.
In the case of C15G U20C C31A it was 0.03; in that of C15G G30C C31U C42A, 0.01.
In the case of C15G G19A G33U it was 0.22; in that of A14U U20C G30A G36A, 0.06.
In the case of C15G U20G G27C G33A C37G G40A it was 0.01.
As for C15A G27A G33C, the self-cleavage was determined as 0.04.
The result for C15A G17U U43C reads 0.01; that for C15A U34G C42U, 0.04; that for C15A G30C G33C G44A, 0.02.
For C15A U28C G33A, the self-cleavage came out at 0.25.
In the case of C15G G27U G29A it was 0.09; in that of C15A C18G U32C U34A, 0.01; in that of C15A G22U C46U, 0.1.
For C15G G30U C31U G44U, the self-cleavage came out at 0.01.
As to C15G G19C G36A, the self-cleavage came out at 0.06.
In the case of C15A A25U U32A A39C it was 0.04; in that of C15A A26U G27U, 0.02; in that of C15A G21C C46U, 0.18.
In the case of C15A U20A C31G C45U it was 0.06; in that of C15A G27C G29C A39C, 0.18; in that of C15A U20G C37U, 0.01.
With C15A G35A G36U C37A, the self-cleavage turned out to be 0.06.
In the case of C15G G17C A25C C45G it was 0.04; in that of C15G G19U G21C U38C, 0.02.
In the case of C15G U28G G30C G35U C37G C42U C45G it was 0; in that of C15G C23U A24G G35A, 0.05.
As to C15A G35C U43A, the self-cleavage was 0.03.
In the case of C15G C31G U38A it was 0.03; in that of C15A A16U G36C A39G U43A, 0.06; in that of C15A G27C U34G G35A C42G, 0.
In the case of C15A G17A C23A G29A it was 0.01.
In the case of C15G G29A C31G it was 0.01; in that of C15G G19C G33A C46U, 0.02; in that of C15G A26C C45A, 0.02.
For the variant C15G C18G U43A, the self-cleavage turned out to be 0.06.
The result for C15G C18A G19C G22U G35U C42G reads 0; that for C15G C18U A25G U34G G36C C46A, 0; that for C15A C18A A25C C37G, 0.02.
In the case of C15A C31G G33C it was 0.01; in that of C15A C23A G27A U32C, 0.04; in that of C15G G35C C46U, 0.18.
The result for C15A A26U G33A reads 0.05; that for C15A G22A G35A, 0.05; that for C15G G22A C23U G29C G30A, 0.02.
As to C15A G22A A25U A41C, the self-cleavage was found to be 0.04.
The result for C15A C18U G33C U34A A41C reads 0.01; that for C15A G21C G22U A25U G35C, 0.03.
For C15A G30C G33A, the self-cleavage was 0.05.
The result for C15G C37U C46U reads 0.01.
The result for C15A C23A G36U U43G reads 0; that for C15A G30A C37G, 0.03; that for C15A A26C G40U, 0.01.
On to C15A G17C A41U, for which the self-cleavage turned out to be 0.04.
In the case of C15A G19C G22A A39G A41C it was 0.01.
The result for C15A C18A G27U C37G C46U reads 0.04; that for A14U U20A G22C A24C, 0.04.
In the case of C15G G17A C23U G35C it was 0.
Turning to A14U U20A G22C G33A C46A, the self-cleavage amounted to 0.04.
The result for C15A G30U C42U reads 0.02; that for C15A C23A C45U C46U, 0.48.
Turning to C15A G22U G35U, the self-cleavage came out at 0.05.
In the case of C15G C31U C45G it was 0.02; in that of C15G C31A G40C, 0.02; in that of C15A G29C U34C, 0.02.
In the case of C15G G22A G35U it was 0.11; in that of C15A C18U G44U, 0.13; in that of A14U U28A A41U, 0.03.
With A14U U28G G30A U34G, the self-cleavage amounted to 0.17.
The result for C15G U20C G21U A26C G30C C37A reads 0.01; that for C15G G27U C31A G33U, 0.03.
The result for A14U U32G G44C reads 0.05; that for C15A A16U C46A, 0.
As for C15A G40C U43G, the self-cleavage amounted to 0.03.
C15A G21U U28A: the self-cleavage came out at 0.04.
In the case of A14U G35C G40C A41C it was 0.02; in that of C15A G33U U34G, 0.02.
The result for C15A U32C A41C C46G reads 0.04.
In the case of C15A G17A U34C it was 0; in that of C15G A25C C37G A39G G40U C46A, 0.01.
As to A14U U20A G35C, the self-cleavage came to 0.02.
In the case of C15A C31U G36U it was 0.01; in that of C15G G21U G36A, 0.02; in that of C15G C23A G30C U32A C42G, 0.
In the case of C15A G35C C37A it was 0.24; in that of A14U U20A G29C G44U, 0.33; in that of C15G U20G A25C A26C C31U, 0.02.
In the case of C15G G21U G22C U38A G44U it was 0.01; in that of A14U U32C C45A, 0.05; in that of C15A G19A U32C, 0.11.
Regarding C15A G40A C42G, the self-cleavage came out at 0.06.
